Read counts are not given, so values of variants with three or more changes are uncertain.
B1: OR4K15 (parent)
chain: GUUAACGGUCAUAGGCCAUGGAAACUAGGAGCACCAUUUCGCUGCCAGUGAAGAAAUGAACAAAGAAAAUCUGGGCCAGGCAGGCAUCAAAAGAAAUAGUCUUGCGCUCAACCAGAAAGUCUGUAAUCAUUUUAAGGGUA

Variants of: B1
Test: self-cleavage, relative activity (ratio to wild type); higher = more cleavage; in vitro, sequencing; the parent is a self-cleaving ribozyme

Variant | self-cleavage
A18U A59G A62G U102C | 2.06
A64G U87C U103A A116G A126G | 0.15
G28A A67U A86G | 2.34
C17U A24U A56G A86G U130C | 1.27
A89U A117G U130C A140U | 0.23
A13G A117G U127C | 1.53
A54G A66G U97A G123A | 1.56
A11G A27U G31A A92G | 1.16
A5G U39C A66G A110U | 1.33
A22G A54G A55G | 1.11
A86G A96G U122C | 1.17
A22G A51G A94G A96G G123A | 1.11
U43C A54G A62C U102A | 0.65
U2A A4U A89G A92G | 0.56
G73A U108C U130C | 0.01
A52G A90G U108C A116G A129G U131C | 0
A18G U19C A82G A92G U127C A129U | 0.23
A24G A52G A67G | 1.16
A64G A92G A94G U100C | 1.3
U39C A63G A96G | 0.52
A22G A95G U132A | 1.69
A51G A66G A140G | 1.41
U43C U57C A114U | 0.02
A30U A47G U49C | 1.28

Variant | self-cleavage
A23C A54G A55G | 1
A5G U26C U87C A96U U102C U108A U131A | 0
G15U A33U U43C U87C A89U | 1.47
A89G A95G A96G U102G A114G A125G | 0.02
A4G A64G U97C | 0.84
U38C A59G A66G U132C | 1.52
U38C A69U A82G A86G A91G | 0.03
U19A C45G U130C | 0.66
A23C A78U A91G | 0.17
U19C A22G U100C | 1.38
A60G A89U U102C | 1.7
U70A A82G A89G U100A | 0.05
G7U U57C A62G A64G A90G | 0.76
A56G A63G A117G | 1.24
U2A G75C A96C U102C U108C U122A U131C | 0
A24G A56G U87C A92G U97G | 0.69
A23C A33U A67G U108C | 0.05
A18U A69G U72C | 0.14
A68G A91G U132A | 0.97
U37C G48A A60G A64G | 0.8
A52G A90G A114U A117G | 0
U43C U102G A110U U131C | 0.22
A5G C16U U122C | 0.69
U9C C46U U87C | 2.12

Variant | self-cleavage
U37C A118G U124C | 1.81
U37G U131C A140G | 1.19
A51U A52G A60G | 0.34
U2A A18G U102A | 0.51
A24G A51G A92G U122C U130C | 1.2
G58A A116G U120C | 0.22
A67G A92G U100C | 2.55
U9C A91G A126G | 0.86
A33G U49A A54G A60U A114G U131C | 0.03
A22G A55G A56G U57C A96G U122C | 0.7
U2C U57C C105U | 0.01
G65A A86G U130C | 1.06
A54G A56G A94U | 1.19
A11U G21A U103C | 1.11
A5G A82U G104A U122C U131C | 0.01
U38C U57A U108C A110U | 0.02
U9C A59G A68C | 1.59
U19C U43G A51G | 0.99
A18C A62G A92G U122A | 0.51
A51G A64G A68G A86G | 1.13
U49A A90G U120C A129G | 0.09
A23G A90G A126G | 0.85
U43C A95G U102C A118U | 1.14
A90G U122C U127C | 0.35

Variant | self-cleavage
A36U U102C A116G | 2.18
A11G A82U A94G A98G A110U | 0.03
U37C A59G U70C U127G A134U | 0.32
A33U A52G A59G A89C A90G | 0.96
C32U A63U A68G | 0.53
U87C A89G C105U | 0.02
U2C A11G U124A | 0.3
A11G G65U U130C | 0.81
A4G A78G A114U | 0.03
A5U G31A U100C | 1.73
G53U A59G A86G A90G | 0.61
U19A A22G A33G A36U A96G | 1.59
A82G A91G U100C U139C | 1.84
U37A A52G A82G U100A | 0.1
A67G A86G A114G | 0.26
A51G U70C G84A U108A A126G | 0.01
A47C A51G A117G U127C U132C | 0.46
A5G U38C C46A A95G A116G | 1.15
A91G A117G A126G | 0.97
A30G A59U U72C | 0.23
U9C A63G U108C | 0.02
A18G A86G U100C | 1.18
A4G A62U A90C A96U | 1.09
A23G A60G A67G C105U A111C | 0.02

Variant | self-cleavage
A47U A52G A82U A98G U108C | 0.01
U37C A52G A64G A89G A92G U122A | 0.46
A22G A54G U70C A86C A140G | 0.06
U26C U43A U100C | 2.25
A13G A30C A82U | 0.41
G50A U103C U120A | 1.73
A33G A78U G84A | 0.18
A18G A82G U108C A126G | 0.01
A33G U43C U70A U87A U100A | 0.05
A47G A68G A110G | 0.05
A56G A94G U103C | 1.19
U39C A89G A118U | 1.1
A11U U57A A69G | 0.39
U37C A68G A110G | 0.12
U38A U57C C71A A94G A111G A117G | 0.01
U26C A47G C112U U132C | 0.01
A55C A64G U108A | 0.01
U43C A51G A126G | 1.14
A66G A68G A111U A134G | 0.11
A64G C81U A118G | 0.31
U2A A27G U38C G41C A51C U131C | 0.93
A54G A69U A82G A94G U103C | 1.99
A33G A117G A129G | 0.72
U12C A23G A64U A111G | 0.1

Variant | self-cleavage
A13G A89G U122A | 1.33
A23G A68G A86G U87C A95G | 1.05
C10U A52G A90G | 0.19
U2C A5G U70C G75A U103A U131C | 0.03
A24G A92G A140G | 0.83
A23U A69G U122C | 0.57
U57A A91G U108A A135G | 0
U3C A5U U131C | 0.85
U100A C128U A134G | 0.04
U39C U49C A64U | 0.65
U9C A52G A55G U70C A82U A110G | 0.2
A33U A114G A117G U122C | 0.22
A62G A94G U127C | 0.65
A30G A78G A140G | 0.11
C34U A86G U122A | 1.27
U19C U49C A59G A60G | 1.1
A54G A60G A64G | 0.87
U9G A11G A18U A24G A36C U57C A59G A111G | 0.07
U2C A24G A27U A90G | 0.91
A23G U49C A94G A126G | 0.2
U97C U108C A118G | 0.01
U37C A51U A117G | 2.67
G8C A22U A94G U100C | 2.52
U39C A78C A111U | 0.03

Variant | self-cleavage
A5G A23G A33G U72A A126G | 0.19
A23G A33U U108C | 0.04
A33U A56G A95G A96G U103A C109U | 0.02
A18G A51G A116G | 0.35
G104A U108C A111G | 0.02
A51G A95C U122C | 0.52
A33G A91G A98G | 0.27
A47G U108C A129G U131C | 0.01
U43C A54G A91U A117G | 1.58
A52G A55G A67U A94G | 0.49
C25U A47G A114G | 0.15
A23G U39A A64G | 0.7
A24C U57C A59G A89G | 1.26
U26C A67G U122C | 0.75
A55G A90G U103C | 0.5
A18U U19C U87A | 0.83
U3C U19C U43C U49C A55G A90G | 0.7
A22G U39C U72A U100C | 0.78
A11U A36G U38A A67G | 1.09
A30U A125C A126G | 0.81
G14U A24U U72A U127C | 0.19
A5G A54G C109U A129G | 0.61
U38C U57C A67G U132C | 1.83
